Reference: the RNAGym collection of RNA variant scans (doi:10.1073/pnas.2313332121)
Variants at the background level are over-represented here.

B1: TPR 5TU (parent)
chain: GGAUCUUCUCGAUCUAACAAAAAAGACAAAUCUGCCACAAAGCUUGAGAGCAUCUUCGGAUGCAGAGGCGGCAGCCUUCGGUGGCGCGAUAGCGCCAACGUUCUCAACUAUGACACGCAAAACGCGUGCUCCGUUGAAUGGAGUUUAUCAUG

Variants of: B1
Test: polymerase ribozyme fitness, log enrichment relative to wild type (log ratio); higher = more active; in vitro selection for triplet polymerase activity
In short: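 Mutant libraries of each subunit of a heterodimeric triplet polymerase ribozyme were built by PCR and transcribed. Each library went through one round of in vitro selection in triplicate: annealing with biotinylated primer, partner subunit and triplets, frozen incubation at −7 °C, gel excision of extended constructs, streptavidin-bead capture and RT-PCR. Input and output libraries were Illumina-sequenced; only genotypes with ≥10 input reads and ≥1 read per output were kept. Fitness is log2(genotype enrichment/wild-type enrichment), using inverse-variance-weighted replicate averages.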

Row | Variant | polymerase ribozyme fitness (log ratio)
1 | GGAUCUUCUCGAUCUAACAAAAAAGACAAAUCUGCCACAAAGCUUGAGAGCAUCUUCGGAUGCAGAGGCGGCAGCCUUCGGUGGCGCGAUAGCGCCAACGUUCUCAACUAUGACACGCAAAACUCGUGCACCGUUGAAUGGGGUUUAUCAUG [G124U U130A A142G] | ≤ -4.2
2 | GGAUCUUCUCGAUCUAACAAAAAAGACAAAUCUGCCACAAAGCUUGAGAGCAUCUUCGGAUGCAGAGGCGGCAGCCUUCGGUGGCGCGAUAGCGCCAACGUUCUCAACUAUGACACGCAAAACCCGUGCUCCGUUGAAUGCAGUUUAUCAUG [G124C G141C] | -1.16
3 | GGAUCUUCUCGAUCUAACAAAAAAGACAAAUCUGCCACAAAGCUUGAGAGCAUCUUCGGAUGCAGAGGCGGCAGCCUUCGGUGGCGCGAUAGCGCCAACGUUCUCAACUAUGACACGCAAAACCCGUGCUCCGUAGAAUGGAGUUUAUCAUG [G124C U135A] | -1.84
4 | GGAUCUUCUCGAUCUAACAAAAAAGACAAAUCUGCCACAAAGCUUGAGAGCAUCUUCGGAUGCAGAGGCGGCAGCCUUCGGUGGCGCGAUAGCGCCAACGUUCUCAACUAUGACACGCAAAACUCGUGCUCCGUCGAAUGGAGUUUAUCAUG [G124U U135C] | -2.36
5 | GGAUCUUCUCGAUCUAACAAAAAAGACAAAUCUGCCACAAAGCUUGAGAGCAUCUUCGGAUGCAGAGGCGGCAGCCUUCGGUGGCGCGAUAGCGCCAACGUUCUCAACUAUGACACGCAAAACGAGUGCUCCGUUGAAUGGAGUUCAUCAUG [C125A U146C] | -0.394
6 | GGAUCUUCUCGAUCUAACAAAAAAGACAAAUCUGCCACAAAGCUUGAGAGCAUCUUCGGAUGCAGAGGCGGCAGCCUUCGGUGGCGCGAUAGCGCCAACGUUCUCAACUAUGACACGCAAAACGAGUGCUCCGUUGAAUGGAGUUGAUCAUG [C125A U146G] | -0.126
7 | GGAUCUUCUCGAUCUAACAAAAAAGACAAAUCUGCCACAAAGCUUGAGAGCAUCUUCGGAUGCAGAGGCGGCAGCCUUCGGUGGCGCGAUAGCGCCAACGUUCUCAACUAUGACACGCAAAACGAGUGCUCCGUUGAAUGGAGUUUACCAUG [C125A U148C] | -3.48
8 | GGAUCUUCUCGAUCUAACAAAAAAGACAAAUCUGCCACAAAGCUUGAGAGCAUCUUCGGAUGCAGAGGCGGCAGCCUUCGGUGGCGCGAUAGCGCCAACGUUCUCAACUAUGACACGCAAAACACGUGCUCCGUUAAAUGGAGUUUAUCAUG [G124A G136A] | -0.107
9 | GGAUCUUCUCGAUCUAACAAAAAAGACAAAUCUGCCACAAAGCUUGAGAGCAUCUUCGGAUGCAGAGGCGGCAGCCUUCGGUGGCGCGAUAGCGCCAACGUUCUCAACUAUGACACGCAAAACCCGUGCUCCGUUGAAUGGAGUUUAUCAUG [G124C] | -0.922
10 | GGAUCUUCUCGAUCUAACAAAAAAGACAAAUCUGCCACAAAGCUUGAGAGCAUCUUCGGAUGCAGAGGCGGCAGCCUUCGGUGGCGCGAUAGCGCCAACGUUCUCAACUAUGACACGCAAAACACGUGCUCCGUUGAAUGGAGUUUAUCAUG [G124A] | -0.246
11 | GGAUCUUCUCGAUCUAACAAAAAAGACAAAUCUGCCACAAAGCUUGAGAGCAUCUUCGGAUGCAGAGGCGGCAGCCUUCGGUGGCGCGAUAGCGCCAACGUUCUCAACUAUGACACGCAAAACCCGUGCUCCGUUAAAUGGAGUUUAUCAUG [G124C G136A] | -2.84
12 | GGAUCUUCUCGAUCUAACAAAAAAGACAAAUCUGCCACAAAGCUUGAGAGCAUCUUCGGAUGCAGAGGCGGCAGCCUUCGGUGGCGCGAUAGCGCCAACGUUCUCAACUAUGACACGCAAAACGCAUGCUCCGUUGACUGGAGUUUAUCAUG [G126A A138C] | -3.73
13 | GGAUCUUCUCGAUCUAACAAAAAAGACAAAUCUGCCACAAAGCUUGAGAGCAUCUUCGGAUGCAGAGGCGGCAGCCUUCGGUGGCGCGAUAGCGCCAACGUUCUCAACUAUGACACGCAAAACGGGAGCUCCGUUGAAUGGAGUUUAUCAUG [C125G U127A] | -3.68
14 | GGAUCUUCUCGAUCUAACAAAAAAGACAAAUCUGCCACAAAGCUUGAGAGCAUCUUCGGAUGCAGAGGCGGCAGCCUUCGGUGGCGCGAUAGCGCCAACGUUCUCAACUAUGACACGCAAAACCCUUGCUCCGUUGAAUGGAGUUUAUCAUG [G124C G126U] | ≤ -4.2
15 | GGAUCUUCUCGAUCUAACAAAAAAGACAAAUCUGCCACAAAGCUUGAGAGCAUCUUCGGAUGCAGAGGCGGCAGCCUUCGGUGGCGCGAUAGCGCCAACGUUCUCAACUAUGACACGCAAAACUCGUGCUCCGUUAAAUGGAGUUUAUCAUG [G124U G136A] | 0.382
16 | GGAUCUUCUCGAUCUAACAAAAAAGACAAAUCUGCCACAAAGCUUGAGAGCAUCUUCGGAUGCAGAGGCGGCAGCCUUCGGUGGCGCGAUAGCGCCAACGUUCUCAACUAUGACACGCAAAACGUGUGCUCCGUUGAAUGGAGUUUAGCAUG [C125U U148G] | ≤ -4.2
17 | GGAUCUUCUCGAUCUAACAAAAAAGACAAAUCUGCCACAAAGCUUGAGAGCAUCUUCGGAUGCAGAGGCGGCAGCCUUCGGUGGCGCGAUAGCGCCAACGUUCUCAACUAUGACACGCAAAACGUGUGCUCCGUUGAAUGGAGUUUAUCUUG [C125U A150U] | -0.413
18 | GGAUCUUCUCGAUCUAACAAAAAAGACAAAUCUGCCACAAAGCUUGAGAGCAUCUUCGGAUGCAGAGGCGGCAGCCUUCGGUGGCGCGAUAGCGCCAACGUUCUCAACUAUGACACGCAAAACACGUGCUCCGUUGAAUGGAGUUUAUCGUG [G124A A150G] | -0.501
19 | GGAUCUUCUCGAUCUAACAAAAAAGACAAAUCUGCCACAAAGCUUGAGAGCAUCUUCGGAUGCAGAGGCGGCAGCCUUCGGUGGCGCGAUAGCGCCAACGUUCUCAACUAUGACACGCAAAACACGUGCUCCGUUGAAUGGAGUUUACCAUG [G124A U148C] | -0.766
